The other results are listed elsewhere or left out. The full chains were built here from the parent and the listed change. Inactive controls read about 0.05.

Sequences and labels used below:
B1: TEV protease; numbered along this chain (parent)
chain: MGESLFKGPRDYNPISSSICHLTNESDGHTTSLYGIGFGPFIITNKHLFRRNNGTLVVQSLHGVFKVKDTTTLQQHLVDGRDMIIIRMPKDFPPFPQKLKFREPQREERICLVTTNFQTKSMSSMVSDTSCTFPSGDGIFWKHWIQTKDGQCGSPLVSTRDGFIVGIHSASNFTNTNNYFTSVPKNFMELLTNQEAQQWVSGWRLNADSVLWGGHKVFMVKPEEPFQPVKEATQL

In this experiment the parent is B1. Description: raw area under fraction-flipped curve 0-4 h after induction (AUC4h, not background-subtracted), DNA-recorder readout of cleavage of the substrate (dimensionless); higher = more cleavage of the substrate by the protease variant. The following applies: temperature: 34 °C; time window: 0-4 h after rhamnose induction. As for the experimental part: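 In vivo DNA recorder in E. coli TOP10(DE3) ΔrhaA at 34 °C. Each TEVp single-site mutant (parent TEVp 0) is paired with a single-site variant of the 7-mer TEVs (canonical ENLYFQ|S). The substrate sits between flexible linkers in a Bxb1-sfGFP-TEVs-SsrA fusion, so cleavage stabilises Bxb1 and speeds flipping of a recombination array, read by NGS. The value is the raw area under the fraction-flipped curve over 0-4 h after rhamnose induction (AUC4h), with ≥20 reads per time point. It is not background-subtracted; inactive controls average about 0.047.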
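Further: Bxb1 expression induced with 0.2% (w/v) L-rhamnose at OD600 near 0.5, cultures sampled hourly, flipped fraction per protease–substrate barcode pair counted by paired-end Illumina sequencing.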

On to MGESLFKGPRDMNPISSSICHLTNESDGHTTSLYGIGFGPFIITNKHLFRRNNGTLVVQSLHGVFKVKDTTTLQQHLVDGRDMIIIRMPKDFPPFPQKLKFREPQREERICLVTTNFQTKSMSSMVSDTSCTFPSGDGIFWKHWIQTKDGQCGSPLVSTRDGFIVGIHSASNFTNTNNYFTSVPKNFMELLTNQEAQQWVSGWRLNADSVLWGGHKVFMVKPEEPFQPVKEATQL [Y12M], for which the “area with substrate ENLYFQA” value was 0.112, the “area with substrate ENLYFQC” value came out at 0.121, the “area with substrate ENLYFQG” value stood at 0.105 and the “area with substrate ENLYFQH” value was 0.0766. Further, the “area with substrate ENLYFQI” value worked out at 0.0559, the “area with substrate ENLYFQK” value stood at 0.066, the “area with substrate ENLYFQL” value was found to be 0.0528 and the “area with substrate ENLYFQN” value is 0.0722. Moreover, the “area with substrate ENLYFQP” value was found to be 0.0444, the “area with substrate ENLYFQR” value was 0.0617, the “area with substrate ENLYFQS” value came out at 0.106 and the “area with substrate ENLYFQT” value was 0.073. For the same variant, the “area with substrate ENLYFQV” value turned out to be 0.0485 and the “area with substrate ENLYFQY” value was found to be 0.0872.

As to MGESLFKGPRDNNPISSSICHLTNESDGHTTSLYGIGFGPFIITNKHLFRRNNGTLVVQSLHGVFKVKDTTTLQQHLVDGRDMIIIRMPKDFPPFPQKLKFREPQREERICLVTTNFQTKSMSSMVSDTSCTFPSGDGIFWKHWIQTKDGQCGSPLVSTRDGFIVGIHSASNFTNTNNYFTSVPKNFMELLTNQEAQQWVSGWRLNADSVLWGGHKVFMVKPEEPFQPVKEATQL [Y12N], the “area with substrate ENLYFQA” value worked out at 0.124, the “area with substrate ENLYFQC” value came out at 0.131, the “area with substrate ENLYFQF” value came to 0.106 and the “area with substrate ENLYFQL” value amounted to 0.056. In addition, the “area with substrate ENLYFQM” value came out at 0.0856, the “area with substrate ENLYFQN” value turned out to be 0.0525, the “area with substrate ENLYFQP” value is 0.0395 and the “area with substrate ENLYFQR” value is 0.0517. Besides, the “area with substrate ENLYFQS” value is 0.0986, the “area with substrate ENLYFQT” value came to 0.0627 and the “area with substrate ENLYFQW” value worked out at 0.0661.

With MGESLFKGPRDCNPISSSICHLTNESDGHTTSLYGIGFGPFIITNKHLFRRNNGTLVVQSLHGVFKVKDTTTLQQHLVDGRDMIIIRMPKDFPPFPQKLKFREPQREERICLVTTNFQTKSMSSMVSDTSCTFPSGDGIFWKHWIQTKDGQCGSPLVSTRDGFIVGIHSASNFTNTNNYFTSVPKNFMELLTNQEAQQWVSGWRLNADSVLWGGHKVFMVKPEEPFQPVKEATQL [Y12C], the “area with substrate ENLYFQA” value came to 0.0712, the “area with substrate ENLYFQC” value amounted to 0.0941, the “area with substrate ENLYFQE” value amounted to 0.0563 and the “area with substrate ENLYFQG” value is 0.0907. Besides, the “area with substrate ENLYFQH” value was 0.08, the “area with substrate ENLYFQI” value was found to be 0.0601, the “area with substrate ENLYFQK” value turned out to be 0.0592 and the “area with substrate ENLYFQL” value was 0.0607. The “area with substrate ENLYFQM” value was determined as 0.0632, the “area with substrate ENLYFQN” value was determined as 0.0808, the “area with substrate ENLYFQQ” value was 0.0815 and the “area with substrate ENLYFQR” value was determined as 0.0744. In addition, the “area with substrate ENLYFQS” value came out at 0.096 and the “area with substrate ENLYFQT” value amounted to 0.0718.

As to MGESLFKGPRDYNPISSSIWHLTNESDGHTTSLYGIGFGPFIITNKHLFRRNNGTLVVQSLHGVFKVKDTTTLQQHLVDGRDMIIIRMPKDFPPFPQKLKFREPQREERICLVTTNFQTKSMSSMVSDTSCTFPSGDGIFWKHWIQTKDGQCGSPLVSTRDGFIVGIHSASNFTNTNNYFTSVPKNFMELLTNQEAQQWVSGWRLNADSVLWGGHKVFMVKPEEPFQPVKEATQL [C20W], the “area with substrate ENLYFQA” value came out at 0.0414, the “area with substrate ENLYFQC” value worked out at 0.0873, the “area with substrate ENLYFQD” value came to 0.0455 and the “area with substrate ENLYFQE” value was found to be 0.0403. Further, the “area with substrate ENLYFQF” value was 0.0619, the “area with substrate ENLYFQG” value is 0.0476, the “area with substrate ENLYFQI” value came to 0.0382 and the “area with substrate ENLYFQK” value is 0.0573. Besides, the “area with substrate ENLYFQL” value came to 0.0367, the “area with substrate ENLYFQM” value was 0.0544, the “area with substrate ENLYFQN” value was determined as 0.054 and the “area with substrate ENLYFQP” value came to 0.0416. The “area with substrate ENLYFQQ” value is 0.0275, the “area with substrate ENLYFQR” value stood at 0.0633, the “area with substrate ENLYFQS” value turned out to be 0.0476 and the “area with substrate ENLYFQT” value was determined as 0.0455. Also, the “area with substrate ENLYFQV” value turned out to be 0.0488 and the “area with substrate ENLYFQW” value was 0.0364.

Take MGESLFKGRRDYNPISSSICHLTNESDGHTTSLYGIGFGPFIITNKHLFRRNNGTLVVQSLHGVFKVKDTTTLQQHLVDGRDMIIIRMPKDFPPFPQKLKFREPQREERICLVTTNFQTKSMSSMVSDTSCTFPSGDGIFWKHWIQTKDGQCGSPLVSTRDGFIVGIHSASNFTNTNNYFTSVPKNFMELLTNQEAQQWVSGWRLNADSVLWGGHKVFMVKPEEPFQPVKEATQL [P9R]: the “area with substrate ENLYFQA” value stood at 0.111, the “area with substrate ENLYFQC” value is 0.143, the “area with substrate ENLYFQD” value worked out at 0.0847 and the “area with substrate ENLYFQF” value came to 0.117. Further, the “area with substrate ENLYFQG” value came out at 0.16, the “area with substrate ENLYFQI” value amounted to 0.0644, the “area with substrate ENLYFQK” value was 0.0615 and the “area with substrate ENLYFQL” value amounted to 0.0622. The “area with substrate ENLYFQM” value amounted to 0.111, the “area with substrate ENLYFQN” value came out at 0.0814, the “area with substrate ENLYFQP” value was 0.0479 and the “area with substrate ENLYFQQ” value was determined as 0.0527. Besides, the “area with substrate ENLYFQR” value came to 0.0527, the “area with substrate ENLYFQS” value came out at 0.127, the “area with substrate ENLYFQT” value was found to be 0.0608 and the “area with substrate ENLYFQV” value is 0.0597. The “area with substrate ENLYFQW” value came to 0.0701 and the “area with substrate ENLYFQY” value amounted to 0.0699.

Consider MGESLFKGPRPYNPISSSICHLTNESDGHTTSLYGIGFGPFIITNKHLFRRNNGTLVVQSLHGVFKVKDTTTLQQHLVDGRDMIIIRMPKDFPPFPQKLKFREPQREERICLVTTNFQTKSMSSMVSDTSCTFPSGDGIFWKHWIQTKDGQCGSPLVSTRDGFIVGIHSASNFTNTNNYFTSVPKNFMELLTNQEAQQWVSGWRLNADSVLWGGHKVFMVKPEEPFQPVKEATQL [D11P], for which the “area with substrate ENLYFQA” value was found to be 0.0685, the “area with substrate ENLYFQC” value was found to be 0.0754, the “area with substrate ENLYFQE” value came out at 0.0719 and the “area with substrate ENLYFQF” value was found to be 0.0608. For the same variant, the “area with substrate ENLYFQG” value was 0.0534, the “area with substrate ENLYFQI” value is 0.0664, the “area with substrate ENLYFQK” value was 0.0563 and the “area with substrate ENLYFQL” value came out at 0.0403. The “area with substrate ENLYFQM” value came out at 0.0427, the “area with substrate ENLYFQN” value came to 0.0648, the “area with substrate ENLYFQP” value came to 0.0596 and the “area with substrate ENLYFQQ” value stood at 0.065. For the same variant, the “area with substrate ENLYFQR” value worked out at 0.0547, the “area with substrate ENLYFQS” value stood at 0.0651, the “area with substrate ENLYFQT” value worked out at 0.0641 and the “area with substrate ENLYFQY” value is 0.0622.

MGESLFKGPRDYNPISPSICHLTNESDGHTTSLYGIGFGPFIITNKHLFRRNNGTLVVQSLHGVFKVKDTTTLQQHLVDGRDMIIIRMPKDFPPFPQKLKFREPQREERICLVTTNFQTKSMSSMVSDTSCTFPSGDGIFWKHWIQTKDGQCGSPLVSTRDGFIVGIHSASNFTNTNNYFTSVPKNFMELLTNQEAQQWVSGWRLNADSVLWGGHKVFMVKPEEPFQPVKEATQL [S17P]: the “area with substrate ENLYFQA” value came out at 0.0864, the “area with substrate ENLYFQC” value worked out at 0.116, the “area with substrate ENLYFQF” value is 0.069 and the “area with substrate ENLYFQG” value was 0.0943. Further, the “area with substrate ENLYFQH” value came out at 0.0638, the “area with substrate ENLYFQI” value is 0.0551, the “area with substrate ENLYFQK” value is 0.0767 and the “area with substrate ENLYFQL” value stood at 0.0563. In addition, the “area with substrate ENLYFQM” value was found to be 0.0819, the “area with substrate ENLYFQN” value stood at 0.0694, the “area with substrate ENLYFQP” value was found to be 0.0575 and the “area with substrate ENLYFQQ” value was found to be 0.0763. In addition, the “area with substrate ENLYFQR” value turned out to be 0.056, the “area with substrate ENLYFQS” value was determined as 0.0928, the “area with substrate ENLYFQT” value amounted to 0.061 and the “area with substrate ENLYFQV” value was determined as 0.0587. In addition, the “area with substrate ENLYFQW” value was 0.0645.

As for MGESLFKGPRDYNHISSSICHLTNESDGHTTSLYGIGFGPFIITNKHLFRRNNGTLVVQSLHGVFKVKDTTTLQQHLVDGRDMIIIRMPKDFPPFPQKLKFREPQREERICLVTTNFQTKSMSSMVSDTSCTFPSGDGIFWKHWIQTKDGQCGSPLVSTRDGFIVGIHSASNFTNTNNYFTSVPKNFMELLTNQEAQQWVSGWRLNADSVLWGGHKVFMVKPEEPFQPVKEATQL [P14H], the “area with substrate ENLYFQA” value is 0.104, the “area with substrate ENLYFQC” value amounted to 0.0938, the “area with substrate ENLYFQD” value stood at 0.0609 and the “area with substrate ENLYFQE” value was 0.0701. Besides, the “area with substrate ENLYFQF” value turned out to be 0.0747, the “area with substrate ENLYFQH” value came to 0.0946, the “area with substrate ENLYFQI” value was 0.0509 and the “area with substrate ENLYFQL” value turned out to be 0.0904. For the same variant, the “area with substrate ENLYFQM” value stood at 0.0893, the “area with substrate ENLYFQN” value came to 0.0933, the “area with substrate ENLYFQP” value is 0.0687 and the “area with substrate ENLYFQQ” value came out at 0.0686. Moreover, the “area with substrate ENLYFQR” value came out at 0.0273, the “area with substrate ENLYFQS” value was 0.101, the “area with substrate ENLYFQV” value turned out to be 0.0511 and the “area with substrate ENLYFQW” value is 0.0717.

As to MGESLFKGPRDYNEISSSICHLTNESDGHTTSLYGIGFGPFIITNKHLFRRNNGTLVVQSLHGVFKVKDTTTLQQHLVDGRDMIIIRMPKDFPPFPQKLKFREPQREERICLVTTNFQTKSMSSMVSDTSCTFPSGDGIFWKHWIQTKDGQCGSPLVSTRDGFIVGIHSASNFTNTNNYFTSVPKNFMELLTNQEAQQWVSGWRLNADSVLWGGHKVFMVKPEEPFQPVKEATQL [P14E], the “area with substrate ENLYFQA” value was found to be 0.107, the “area with substrate ENLYFQC” value came out at 0.12, the “area with substrate ENLYFQD” value stood at 0.0761 and the “area with substrate ENLYFQE” value turned out to be 0.0667. Besides, the “area with substrate ENLYFQF” value was found to be 0.0814, the “area with substrate ENLYFQG” value turned out to be 0.0968, the “area with substrate ENLYFQH” value is 0.0845 and the “area with substrate ENLYFQK” value was 0.059. Further, the “area with substrate ENLYFQM” value worked out at 0.0962, the “area with substrate ENLYFQN” value is 0.0746, the “area with substrate ENLYFQR” value was determined as 0.0622 and the “area with substrate ENLYFQS” value came out at 0.101. Also, the “area with substrate ENLYFQT” value was found to be 0.0645.

Values taken from the supplement of paper PMC12217912.
